From ChEMBL document CHEMBL4888484, “Replenishing the malaria drug discovery pipeline: Screening and hit evaluation of the MMV Hit Generation Library 1 (HGL1) against asexual blood stage Plasmodium falciparum ,using a nano luciferase reporter read-out” (2022) come the findings set out here.

As usually defined, the % Inhibition is the change of the read-out against control, counted positive when it falls.

Among all 150,000 compounds or so, about 540 (0.36%) showed an effect of 50% or more. This is one part of the list.

This assay has as its system Plasmodium falciparum. Description: Primary screen in NF54 nanoGlo assay, in single point, at 2uM, 72h; a lower Z score goes with more inhibition. Type of assay: functional, Erythrocyte. To be noted: timepoint 72 hour.
Consider `O=C(N[C@H]1CCN(C2CC2)C1)c1nc[nH]c1C(F)(F)F`, for which the “% Inhibition” value was -7% and the Z score was found to be 1.23.

`CCC(CC)C(=O)N(Cc1cc(NC(=O)NC(C)C)ccc1N(C)C)CC1CC1`: the “% Inhibition” value is reported as -12% and the Z score was 1.17.

Take `CNC(=O)CCc1ccccc1NC(=O)N1CCO[C@H](c2ccccc2)C1`: the “% Inhibition” value is recorded as -12% and the Z score is listed as 1.07.

For `O=C(NCc1ccon1)N[C@H]1CCc2c1ccc(Cl)c2Cl`, the “% Inhibition” value was -5% and the Z score was found to be 0.71.

`CC(C)OCCCOc1cc(Cl)ccc1S(N)(=O)=O`: the “% Inhibition” value was found to be 5% and the Z score was -0.81.

Consider `COc1cccc([C@@H](C)CC(=O)N(C)c2cccnc2OC)c1`, for which the “% Inhibition” value is recorded as -6% and the Z score is recorded as 0.92.

Regarding `Cc1nc(-c2cc(-c3ccc(C)o3)n[nH]2)n([C@H]2CCS(=O)(=O)C2)n1`, the “% Inhibition” value is recorded as -23% and the Z score was found to be 2.41.

For the compound `CC(C)c1nnc(CNC(=O)Cc2cc3ccccc3s2)[nH]1`, the “% Inhibition” value is -15% and the Z score was found to be 2.42.

Take `CC1(C)C[C@@H]1C(=O)N[C@H]1CC[C@H](CO)CC1`: the “% Inhibition” value was found to be 1% and the Z score is given as -0.11.

Regarding `CCOc1ncccc1CNC(=O)Cc1sc(C)nc1-c1ccc(C)cc1`, the “% Inhibition” value is recorded as -1% and the Z score was determined as 0.14.

Take `CC(=Cc1ccc(F)cc1)C(=O)N1CC[C@@H](N)C1`: the “% Inhibition” value is listed as -3% and the Z score turned out to be 0.51.

For the compound `Cc1cc(CN2CCCC2)cc(-c2ccc(C(=O)N3CC(O)C3)cc2)c1`, the “% Inhibition” value was -6% and the Z score is recorded as 1.15.

Turning to `Cc1ncsc1CNc1cccc(C(=O)N2CCC[C@@H]2CO)n1`, the “% Inhibition” value is recorded as -5% and the Z score was found to be 0.64.

Turning to `CC(=O)N1CCN(C[C@@H]2C=C(C)[C@H](Cc3nnc(-c4cncn4C)o3)C[C@H]2C(C)C)CC1`, the “% Inhibition” value came out at 8% and the Z score is -0.95.

Take `O=C(c1nc(C2CC2)n2ccccc12)N1CC(CO)C1`: the “% Inhibition” value was determined as 31% and the Z score was -3.48.

On to `COC(=O)[C@@H]1C[C@H](O)CCN1C(=O)c1ccc(-n2cccn2)cc1`, for which the “% Inhibition” value was -3% and the Z score came to 0.4.

On to `CC(C)(C)c1nn[nH]c1CNc1ccccc1`, for which the “% Inhibition” value is reported as -32% and the Z score came out at 3.78.

For `CCC(CC)C(=O)Nc1ccc([C@@H](O)[C@H]2COCC(=O)N2Cc2ccccc2)cc1`, the “% Inhibition” value is -5% and the Z score is reported as 0.7.

On to `CN(Cc1ncc[nH]1)C(=O)NC1CC(C)(C)CC(C)(C)C1`, for which the “% Inhibition” value is reported as -5% and the Z score was 0.96.

Consider `CC(C)(C)[C@H](NC(=O)C#Cc1ccccc1)C(N)=O`, for which the “% Inhibition” value was -5% and the Z score amounted to 0.9.

`Cc1ccc(-n2nc3c(N4CCN(C(=O)NCCC(C)C)CC4)nnc(C)c3c2C)cc1`: the “% Inhibition” value is -9% and the Z score was 1.

With `CCOc1ccc([C@@]2(O)CN3C=CC=CC3=[N+]2c2ccccc2)cc1`, the “% Inhibition” value was -39% and the Z score is reported as 4.59.

Consider `O=C(Nc1ccncc1)[C@H]1CC12CCCC2`, for which the “% Inhibition” value was -6% and the Z score is 1.14.

As to `COC(=O)[C@H](CNC(=O)Cc1cc(C)[nH]n1)Cc1ccccc1C`, the “% Inhibition” value was -19% and the Z score is 2.08.

As for `CCCc1nc(CN2CCOCC3(CCC3)C2)cs1`, the “% Inhibition” value was -2% and the Z score is on record as 0.35.

As for `NC(=O)CC1(NC(=O)Cc2c[nH]c3cc(F)ccc23)CCOCC1`, the “% Inhibition” value is listed as -8% and the Z score is reported as 1.24.

For the compound `CN(C)c1noc(-c2cc3c(cc2Br)NC(=O)CO3)n1`, the “% Inhibition” value is recorded as -10% and the Z score was 1.5.

Take `CC1CC1C(=O)N1[C@@H]2C[C@H]3CC[C@]2(CS1(=O)=O)C3(C)C` (some centres undefined): the “% Inhibition” value was found to be 9% and the Z score is reported as -0.89.

For the compound `O=C(c1ccccc1-c1ccccc1)N1CCO[C@H]2CCCC[C@@H]21`, the “% Inhibition” value is on record as -2% and the Z score was 0.28.

In the case of `CC1(C)CN(CC(=O)NC2CCCCC2)c2ccc(S(=O)(=O)N3CCCC3)cc21`, the “% Inhibition” value is listed as -3% and the Z score came out at 0.52.

As to `CC(C)N(CCS(C)(=O)=O)Cc1nccs1`, the “% Inhibition” value was -7% and the Z score was 1.07.

With `Cc1ccccc1C1=NO[C@@H](CN(Cc2ccc(F)cc2)C(=O)C2CCC2)C1`, the “% Inhibition” value was -30% and the Z score was 2.62.

Take `Cc1ccc(C(=O)Nc2ccc3ncnc(N4CCCCC4)c3c2)cc1F`: the “% Inhibition” value was -7% and the Z score is given as 0.69.

Take `O=C(Nc1ccccc1C(F)(F)F)N[C@H]1CCN(c2ccc(F)cc2)C1=O`: the “% Inhibition” value worked out at 3% and the Z score was -0.5.

Turning to `CCCc1nc2ccccc2c(C(=O)OCc2nnc(-c3ccccc3)o2)c1CC`, the “% Inhibition” value was 0% and the Z score was found to be 0.01.

On to `CCOc1ccccc1NC(=O)c1c(O)c2cccnc2n(-c2ccccc2)c1=O`, for which the “% Inhibition” value is given as 8% and the Z score is -1.03.

Take `N#Cc1ccc(F)c(CNS(=O)(=O)c2ccc(OCC(F)(F)F)nc2)c1`: the “% Inhibition” value is -5% and the Z score turned out to be 0.95.

As to `O=C(Nc1c[nH]nc1C1CC1)c1cc(C(F)F)ncn1`, the “% Inhibition” value is listed as -22% and the Z score is reported as 2.22.

Regarding `CC(C)Cc1cc(C(=O)N2CCn3nc(C#N)cc3C2)no1`, the “% Inhibition” value was -9% and the Z score stood at 1.27.

Consider `CC1(C)CNC(=O)[C@H]1NS(=O)(=O)c1ccc2c(c1)CCCC2`, for which the “% Inhibition” value is recorded as -12% and the Z score is given as 1.51.

Take `CN(CC#N)C(=O)c1cnc(N(C)C)cn1`: the “% Inhibition” value was -2% and the Z score is 0.44.

On to `CC1=CC[C@H]2CN(C(=O)Cc3c[nH]c4ccccc34)C[C@H]2C1`, for which the “% Inhibition” value is listed as -7% and the Z score amounted to 0.7.
